Reference: PubChem BioAssay AID624417 (National Center for Advancing Translational Sciences (NCATS), 2012)
Among all 410,000 compounds or so, about 6,400 (1.6%) were called active. The shares of active, inactive and inconclusive entries below differ from those in the screen. Calls follow the shape of the dose curve; as a rule, active = well fitted inhibition curve with a large enough effect; inconclusive = small, poorly fitted or top-dose-only effect; inactive = no such curve, though single readings can be large or run the other way. No potency is given beside an inconclusive call; the fits are too rough.
% is scaled to controls: 0 for no effect and ±100 for the full control effect; potency is read from the fitted curve at half-maximal effect; tags tell the direction and shape of the fitted curve.
Also: nearly all actives have a fitted effect of over 55% in size.

What follows are compounds tested against Glucagon-like peptide 1 receptor (Homo sapiens) (UniProt P43220) (assay: qHTS of GLP-1 Receptor Inverse Agonists (Inhibition Mode)). Conditions: HEK293 GLP-1R CRE-luciferase, luminescence, 24 h, GLP-1R form is constitutively active; activity change, negative = inhibition: at 38.3 µM (top of the series) unless noted.
UniProt P43220, sequence (P43220 whole entry, looked up): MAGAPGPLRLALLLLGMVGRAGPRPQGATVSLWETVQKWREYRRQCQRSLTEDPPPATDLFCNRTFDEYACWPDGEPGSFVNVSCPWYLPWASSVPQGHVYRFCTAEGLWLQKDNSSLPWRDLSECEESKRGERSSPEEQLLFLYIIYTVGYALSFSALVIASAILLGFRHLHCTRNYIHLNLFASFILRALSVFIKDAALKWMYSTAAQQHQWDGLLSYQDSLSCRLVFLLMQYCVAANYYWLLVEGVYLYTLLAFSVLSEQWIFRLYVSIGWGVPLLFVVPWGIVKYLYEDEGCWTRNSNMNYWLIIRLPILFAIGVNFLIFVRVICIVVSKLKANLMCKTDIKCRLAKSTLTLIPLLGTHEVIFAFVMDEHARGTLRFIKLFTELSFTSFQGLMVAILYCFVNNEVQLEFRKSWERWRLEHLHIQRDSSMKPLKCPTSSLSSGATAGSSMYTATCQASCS
Outline: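 Assay principle: reduced luminescence from a cAMP-responsive reporter in HEK293 cells co-expressing a constitutively active GLP-1R. Conditions: 24 hr compound incubation, 37 deg C, 5% CO2.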
In the case of `Cc1ccc(O)c(CNc2cnc3ccccc3c2)c1`, the Potency is reported as inconclusive [inhibitor, single point].
With `COc1ccc(-c2nnc(SCc3ncc(-c4ccccc4)o3)o2)cc1` the Potency was inconclusive [inhibitor, single point].
`CC/C(=N\NC(=O)c1csc(C)c1C)c1cccs1` was tested, and the Potency was inconclusive [inhibitor, partial curve].
`Cc1ccc2c(CN3CCCc4ccccc43)cc(=O)oc2c1C` was tested, and the Potency was inconclusive [inhibitor, single point].
With `CC1CCCN(S(=O)(=O)c2ccc(NC(=O)C3CC(=O)N(c4ccccc4)C3)cc2)C1` (stereo not drawn) the Potency was inconclusive [inhibitor, single point].
In the case of `CN(c1ccc(-c2csc(NC(=O)CCCc3nc4ccccc4c(=O)[nH]3)n2)cc1)S(C)(=O)=O`, the Potency is reported as inconclusive [inhibitor, single point].
`COc1cc(C=O)ccc1OCCOc1ccccc1[N+](=O)[O-]` was tested, and the “activity change, negative = inhibition” value was inactive: 23.4%.
For `COc1cccc(C(=O)Nc2cc(C)on2)c1`, the “activity change, negative = inhibition” value was inactive: -12.6%.
In the case of `S=C1NC[C@H](Cc2ccccc2)N1CCCCC1CCCCC1`, the Potency is reported as inconclusive [inhibitor, partial curve, poor fit].
For `CCCCCn1c(CNC(=O)CCC)nc2ccccc21`, the Potency was inconclusive [inhibitor, single point].
For `COc1ccc(OCc2ccc(-c3nc(C#N)c(N4CCC(C)CC4)o3)o2)cc1`, the Potency was inconclusive [inhibitor, single point].
For `O=C(CSc1nnc(Cc2ccccc2)o1)c1ccccc1`, the Potency was inconclusive [inhibitor, single point].
In the case of `COc1ccc(-c2cc3c(=O)n(CC(=O)NCCCN4CCN(Cc5ccccc5)CC4)ncn3n2)cc1`, the Potency is reported as inconclusive [inhibitor, full curve, poor fit].
`CCN(c1ccccc1)S(=O)(=O)c1ccc(Cl)c(C(=O)N2CCCC2)c1` was tested, and the Potency was inconclusive [inhibitor, partial curve, poor fit].
With `COc1cc(NC(=O)CCN2CCN(C/C=C/c3ccccc3)CC2)cc(OC)c1` the Potency was active: 10 µM.
In the case of `CCN(CC(=O)Nc1ccc(OC)cc1)C(=O)Cc1coc2cc(C)c(C)cc12`, the Potency is reported as inconclusive [inhibitor, partial curve, poor fit].
`Cc1ccc2c(c1)[C@H]1[C@H](CO2)[C@H](c2ccccc2)[C@]2(C)C(=O)N(Cc3ccc(F)cc3)CC(=O)N12` was tested, and the Potency was inconclusive [inhibitor, single point].
`COc1ccc(CCNC(=O)c2ccc(CSc3ccccc3)o2)cc1` was tested, and the Potency was inconclusive [inhibitor, single point].
In the case of `CC/C(=N\Nc1ccccc1[N+](=O)[O-])c1ccc(O)cc1`, the Potency is reported as inconclusive [inhibitor, single point].
In the case of `CCCC(=O)NC(=S)Nc1nc(-c2ccc(OC)cc2)cs1`, the “activity change, negative = inhibition” value is reported as inactive: 17.1%.
`CC(=O)C1N=NCC1c1ccccc1` (stereo not drawn) was tested, and the Potency was inconclusive [inhibitor, single point].
For `O=C(CN1C(=O)CSc2ccc(S(=O)(=O)N3CCOCC3)cc21)NCc1c(F)cccc1Cl`, the Potency was inconclusive [inhibitor, partial curve, poor fit].
With `O=C(Cc1ccc(S(=O)(=O)N2CCOCC2)s1)Nc1cc(C(F)(F)F)ccc1N1CCCC1` the Potency was inconclusive [inhibitor, single point].
In the case of `CCCCN(C)Cc1cc(=O)oc2cc3c(cc12)CCCC3`, the Potency is reported as inconclusive [inhibitor, single point].
With `COc1ccccc1N1CCN(C(=O)c2cc3c(s2)CCCCC3)CC1` the Potency was inconclusive [inhibitor, partial curve, poor fit].
In the case of `CCCOc1ccc(-c2nnc(-c3ccco3)o2)cc1`, the Potency is reported as inconclusive [inhibitor, partial curve, poor fit].
`Cc1[nH]n(-c2cccc(Cl)c2)c(=O)c1C=NCC(C)C` was tested, and the “activity change, negative = inhibition” value was inactive: -13.5%.
In the case of `Nc1nc(SCc2ccc(Cl)cc2Cl)c2ncn(C3OC(CO)C(O)C3O)c2n1` (stereo not drawn), the “activity change, negative = inhibition” value is reported as inactive: -23.8%.
For `S=C(NCc1ccc2[nH]c3c(c2c1)CCCC3)Nc1ccccc1Cl`, the Potency was inconclusive [inhibitor, single point].
In the case of `COCCNCCCCSc1ccc(Cl)cc1`, the Potency is reported as inconclusive [inhibitor, full curve].
For `COc1ccc(CN2CCNC(=O)C2CC(=O)NCCCC2CCCC2)c(C)c1C` (stereo not drawn), the Potency was inconclusive [inhibitor, single point].
`CCN(CC)Cc1c(C(=O)N/N=C/c2cccc3ccccc23)nnn1-c1nonc1N` was tested, and the Potency was inconclusive [inhibitor, single point].
With `Cc1ccc(-c2cc(C(=O)N/N=C/C=C/c3ccccc3)n[nH]2)s1` the Potency was inconclusive [inhibitor, single point].
For `Cc1cc(Cl)ccc1Oc1ncc(CN2CCN(c3ccccc3)CC2)s1`, the Potency was inconclusive [inhibitor, single point].
In the case of `O=C(N/N=C/C(Cl)=C/c1ccccc1)c1ccccn1`, the activity change, negative = inhibition is reported as inactive: 8.43% [at 0.307 µM].
With `CCOc1cc(CN2CCCC(C(=O)c3cccc(C(F)(F)F)c3)C2)ccc1O` (stereo not drawn) the Potency was inconclusive [inhibitor, partial curve, poor fit].
`Cc1cc(C)n(C(=O)c2ccc(NC(=O)C3COc4ccccc4O3)cc2)n1` (stereo not drawn) was tested, and the “activity change, negative = inhibition” value was inactive: 0.107%.
`CCN(CC)CCNC(=O)c1ccc(NC(=O)c2c(F)cccc2Cl)cc1` was tested, and the “activity change, negative = inhibition” value was inactive: -15.9%.
In the case of `Cc1ccccc1NC(=O)Nc1nc(C(N)Cc2ccccc2)cs1` (stereo not drawn), the Potency is reported as inconclusive [inhibitor, single point].
`CCCC(=O)Nc1ccc(S(=O)(=O)N2CCc3ccccc32)cc1` was tested, and the Potency was inconclusive [inhibitor, single point].
`CCNc1nc(SCCOc2ccc(Br)cc2)nc(N(C)C)n1` was tested, and the Potency was inconclusive [inhibitor, single point].
`NC(=O)Nc1ccc(Oc2c(F)c(F)c(F)c(F)c2F)cc1` was tested, and the Potency was inconclusive [inhibitor, single point].
In the case of `Cc1ccc(CNC(=O)CN2C(=O)NC(C)(c3cccc(Br)c3)C2=O)cc1` (stereo not drawn), the Potency is reported as inconclusive [inhibitor, partial curve].
In the case of `O=c1c2ccccc2n(Cc2ccc(Cl)cc2)c(=O)n1Cc1ccco1`, the Potency is reported as inconclusive [inhibitor, partial curve, poor fit].
With `Cc1ccc(C(=O)Nc2ccccc2N2CCN(C(=O)C(C)C)CC2)cc1` the Potency was inconclusive [inhibitor, partial curve, poor fit].
With `O=C1C(CCCNC(=S)NCc2ccccc2)NC(=S)N1Cc1ccccc1` (stereo not drawn) the Potency was inconclusive [inhibitor, partial curve, poor fit].
For `Cc1ccccc1-n1nc(CSc2nc3ccccc3[nH]2)c(-c2ccccc2)c1N`, the Potency was inconclusive [inhibitor, single point].
In the case of `CCCCN(CCCC)Cc1ccc(C(=O)NNC(=O)Nc2ccc(Cl)cc2)o1`, the Potency is reported as inconclusive [inhibitor, partial curve, poor fit].
`Cc1ccccc1C(=O)NNC(=S)NC(=O)c1cccs1` was tested, and the Potency was inconclusive [inhibitor, single point].
For `Cc1nn(Cc2nc(-c3cccs3)no2)c(C)c1Br`, the Potency was inconclusive [inhibitor, single point].
With `COc1ccc(C2C3=C(CC(C)(C)CC3=O)Oc3ncn(CC(C)C)c(=N)c32)cc1` (stereo not drawn) the Potency was inconclusive [inhibitor, partial curve, poor fit].
In the case of `CC(NCC1COc2ccccc2O1)C1COc2ccccc2O1` (stereo not drawn), the Potency is reported as inconclusive [inhibitor, partial curve, poor fit].
In the case of `N#CCCn1nc(-c2ccccc2)cc1-n1c(C(F)(F)F)nc2ccccc21`, the Potency is reported as inconclusive [inhibitor, partial curve, poor fit].
In the case of `COc1cc2c(C#N)c(N3CCN(c4ccccc4OC)CC3)nc(N)c2c(N)n1`, the Potency is reported as inconclusive [inhibitor, partial curve, poor fit].
In the case of `CC(C)NC(=O)Nc1ccc2c(c1)C(=O)N([C@H](C)CO)C[C@@H](C)[C@@H](CN(C)C(=O)NC1CCCCC1)O2`, the “activity change, negative = inhibition” value is reported as inactive: 9.6%.
With `Cc1nn(C(=O)c2ccccc2)c(C)c1Sc1ccc(Cl)cc1` the Potency was inconclusive [inhibitor, single point].
`N#Cc1nc(COc2ccc(Cl)cc2)oc1N1CCN(Cc2ccccc2)CC1` was tested, and the Potency was inconclusive [inhibitor, single point].
With `CCN(CCCNC(=O)C1CCCN(S(=O)(=O)CC)C1)c1cccc(C)c1` (stereo not drawn) the Potency was inconclusive [inhibitor, single point].
`COC(=O)c1cc2c(cc1NC(=O)c1c(C)nn(-c3ccc(C)cc3)c1-n1cccc1)OCO2` was tested, and the “activity change, negative = inhibition” value was inactive: 3.27%.
For `COc1nc(NC(C)C)nc(N(C#N)CN2C(=O)c3ccccc3S2(=O)=O)n1`, the “activity change, negative = inhibition” value was inactive: 26.9%.
For `Cc1ccc(C(=O)C(C)OC(=O)Cc2n[nH]c(=O)c3ccccc23)cc1` (stereo not drawn), the Potency was inconclusive [inhibitor, partial curve, poor fit].
In the case of `O=C(NC1CCc2ccccc21)c1cc(COc2ccc(F)cc2F)on1` (stereo not drawn), the Potency is reported as inconclusive [inhibitor, partial curve, poor fit].
In the case of `Cc1ccc(C)c(N2CCN(C(=O)Cc3ccc(-n4c(=O)[nH]c5ccsc5c4=O)cc3)CC2)c1`, the Potency is reported as inconclusive [inhibitor, single point].
